We go through 42 sequences from PMC7819943, “Rice protein-binding microarrays: a tool to detect cis-acting elements near promoter regions in rice”.

This is one part of the list.

The test addresses T1, OsWOX13 (Oryza sativa, UniProt Q5QMM3 1-267).
T1 sequence: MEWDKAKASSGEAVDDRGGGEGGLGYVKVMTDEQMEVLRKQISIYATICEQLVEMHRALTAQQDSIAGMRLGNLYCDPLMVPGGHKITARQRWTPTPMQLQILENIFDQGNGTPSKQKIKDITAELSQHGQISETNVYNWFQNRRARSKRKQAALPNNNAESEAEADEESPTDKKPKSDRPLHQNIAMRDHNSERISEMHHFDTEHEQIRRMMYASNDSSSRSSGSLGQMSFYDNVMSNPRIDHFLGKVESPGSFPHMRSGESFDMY
Nature of the test: protein-binding microarray (RPBM); PBS, 2% BSA, 51.3 ng/ul salmon testes DNA, 50 uM zinc acetate, 200 nM TF, 25 C, 1 h; high values mean tight binding. As to conditions: protein: recombinant; tags: N-terminal polyhistidine and DsRed monomer fusion (pET32a); label: CyDye5-dUTP incorporated in the synthesized complementary strand; 3' TTTTT single-stranded linker to array surface; dsDNA, one strand shown. The gist of the method:
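An Axon 4000B scanner gave the binding signal as per-feature fluorescence intensity in arbitrary units. This followed washing of a custom Agilent array that had been incubated for 1 h at 25 °C with 200 nM protein in PBS, 2% BSA, salmon testes DNA and 50 µM zinc acetate. The proteins were transcription factors fused at the N-terminus to polyhistidine and DsRed, expressed in E. coli BL21-CodonPlus and purified on Ni–NTA.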
Take “CCTGAGCATGCATGATTGCTTATAGAAACATTTTGTTTTACGGAGTCACCTAGTGCAG”: the binding signal was 16300 fluorescence intensity (a.u.).

Regarding “TACGGTAATTTAGTGAAACCAAAATGCAGGACGACATTACCGGAGTCACCTAGTGCAG”, the binding signal is 4960 fluorescence intensity (a.u.).

Consider “TCAGTAAGTCAACCGGACATGATTGCATTTTCATCGCGGTCGGAGTCACCTAGTGCAG”, for which the binding signal is 8440 fluorescence intensity (a.u.).

“AAAATTTATATGCCCAATTTAAATTTGAATTCTGATTCGGCGGAGTCACCTAGTGCAG”: the binding signal was 5770 fluorescence intensity (a.u.).

Turning to “CTCCAAAATATCCTCCACATAATTGACAGTTCTAGCTACTCGGAGTCACCTAGTGCAG”, the binding signal is 3770 fluorescence intensity (a.u.).

Turning to “GAGGATGATCTTGATAATTAGTTTCTAACATCGAAATTGACGGAGTCACCTAGTGCAG”, the binding signal was 10400 fluorescence intensity (a.u.).

In the case of “AAAATTATCAAATTCTTTCTTAATAATCTGCAATTCGTGTCGGAGTCACCTAGTGCAG”, the binding signal was 4270 fluorescence intensity (a.u.).

Take “GAATCAAATTAAATTTTAATCGGCTAAAGCCATACTTCATCGGAGTCACCTAGTGCAG”: the binding signal is 14200 fluorescence intensity (a.u.).

Turning to “GGACTCGCAGAAAAGAATCAATCAATCACTAGTCTACCTTCGGAGTCACCTAGTGCAG”, the binding signal is 16300 fluorescence intensity (a.u.).

For “TGATTAACTAGAAAATAATTATACTTATCAAAAGATTATCCGGAGTCACCTAGTGCAG”, the binding signal was 4100 fluorescence intensity (a.u.).

Take “AACTTGTTTTAAATTATTGGTTAAGCTAATTTATTAAAATCGGAGTCACCTAGTGCAG”: the binding signal is 6500 fluorescence intensity (a.u.).

As to “ATTAATTGAGTTTTATTTTATTGTAAATTTGATTTAATAGCGGAGTCACCTAGTGCAG”, the binding signal was 37200 fluorescence intensity (a.u.).

Regarding “AGTTAAATTTTAATTTGTATGTGTGTGAAGTGATATATATCGGAGTCACCTAGTGCAG”, the binding signal is 15400 fluorescence intensity (a.u.).

“TTTGATTGCCCTTCTATATCGACTTTCGATCGCCTTTTCTCGGAGTCACCTAGTGCAG”: the binding signal is 26000 fluorescence intensity (a.u.).

In the case of “TCTGTCTATCTATCTAATCTTCACTTGGAAGCAAATTTTGCGGAGTCACCTAGTGCAG”, the binding signal is 3370 fluorescence intensity (a.u.).

As to “ACATATATAAATTAAGTTGTGGGTGACACTGACATCCATCCGGAGTCACCTAGTGCAG”, the binding signal is 3880 fluorescence intensity (a.u.).

Regarding “ATGATTCTTGAATTGTTCTCATCTCATTTGATTTCGTCCACGGAGTCACCTAGTGCAG”, the binding signal was 5550 fluorescence intensity (a.u.).

For “TACTCCCCGATTGAGGTTGATAGAAGATTGTCAACGATATCGGAGTCACCTAGTGCAG”, the binding signal was 9550 fluorescence intensity (a.u.).

In the case of “GAATTAATGATTGAGAGGAAGCTGAAGCTGAAGTTGTTGCCGGAGTCACCTAGTGCAG”, the binding signal is 39900 fluorescence intensity (a.u.).

On to “ATATATATATATATATATATATATATATAGATTCATTAACCGGAGTCACCTAGTGCAG”, for which the binding signal was 27000 fluorescence intensity (a.u.).

As to “TCTTAATATATTAATGCTGTGTTCAGGAGAAGAGGTTCATCGGAGTCACCTAGTGCAG”, the binding signal was 3470 fluorescence intensity (a.u.).

As for “GCGTAATTGCTCCATGATTTGACAATGTGGTGCTACATTACGGAGTCACCTAGTGCAG”, the binding signal was 47500 fluorescence intensity (a.u.).

Turning to “GATCTGAATGAAATAATTTGACCATGGAAAGGAAACCCTGCGGAGTCACCTAGTGCAG”, the binding signal was 8040 fluorescence intensity (a.u.).

For “CGCGAGCTAATCATCACTCCCACGTCTCAGCTCATTCGTCCGGAGTCACCTAGTGCAG”, the binding signal is 3840 fluorescence intensity (a.u.).

As to “GGTTAATGGAACATATTCTACTACGAATATGAATACGAATCGGAGTCACCTAGTGCAG”, the binding signal is 9050 fluorescence intensity (a.u.).

For the sequence “AGAAATCGTGATTGTTATTAAGCGAGAAGGTAGAAACATCCGGAGTCACCTAGTGCAG”, the binding signal is 8880 fluorescence intensity (a.u.).

As to “TTATAATCAGGGTTTAGATGGAGAAAACAAACAGATAGAGCGGAGTCACCTAGTGCAG”, the binding signal is 9790 fluorescence intensity (a.u.).

As for “CCAAAACTATTAACTGCAACCTTACCTGATGATATATTTGCGGAGTCACCTAGTGCAG”, the binding signal was 5780 fluorescence intensity (a.u.).

For the sequence “TATAATTCCATGATAAATTTAATACTAAATACGTAATTTTCGGAGTCACCTAGTGCAG”, the binding signal is 8520 fluorescence intensity (a.u.).

Take “ACTCCTGTCAGGTCAGGAAATTTGCTTGAAATCTTCCCGACGGAGTCACCTAGTGCAG”: the binding signal was 3550 fluorescence intensity (a.u.).

As to “GATTAATCCAATTGACTTTGATGAGGATGTGCCACTATTTCGGAGTCACCTAGTGCAG”, the binding signal was 6820 fluorescence intensity (a.u.).

For “CTAACTGCATCTCATGATTTTCTGAAAATATATATATCCACGGAGTCACCTAGTGCAG”, the binding signal is 4090 fluorescence intensity (a.u.).

On to “CATAAATTACTTACTTCCTCCGTCCCAAAATATAGCATTTCGGAGTCACCTAGTGCAG”, for which the binding signal was 14600 fluorescence intensity (a.u.).

For “ATTTGATTAAGTTTTAGTTATTACAAACTTTGTAAATTAACGGAGTCACCTAGTGCAG”, the binding signal is 29600 fluorescence intensity (a.u.).

As to “AGGTTATTATTTAAATTCAAATTAGTGAAATTTTACATAACGGAGTCACCTAGTGCAG”, the binding signal was 5620 fluorescence intensity (a.u.).

As for “CCGACTGATTATGCCGCCGCCGACTGGTGCTTTTATCTTCCGGAGTCACCTAGTGCAG”, the binding signal was 15100 fluorescence intensity (a.u.).

With “CCCGCGTTCTAAAGTGCTAATTAAGGTTAGTTACTCCTCACGGAGTCACCTAGTGCAG”, the binding signal is 3270 fluorescence intensity (a.u.).

Take “CATAAATTATGCTAAGGATTAATTATGGTCAGTCTACTAACGGAGTCACCTAGTGCAG”: the binding signal was 20500 fluorescence intensity (a.u.).

With “AATTTCAATCAAATTTTCAATTTTGGCGTGAACTAAACACCGGAGTCACCTAGTGCAG”, the binding signal is 25600 fluorescence intensity (a.u.).

Consider “CTTAGATTTAATGATGAACTCCGTGAAAATCCTGTGCTGACGGAGTCACCTAGTGCAG”, for which the binding signal was 24600 fluorescence intensity (a.u.).

Turning to “TAAAATTGAAGCCTCGAAGCAATCTTTAACTTTTCTCTTCCGGAGTCACCTAGTGCAG”, the binding signal is 4580 fluorescence intensity (a.u.).

Regarding “ATAACAAAATAAATTACAGATTCCGCCAGAAAACTGCGAGCGGAGTCACCTAGTGCAG”, the binding signal is 7960 fluorescence intensity (a.u.).
